Here are results for nine molecules from patent publication US20180155450A1 (Sanofi, published 2018).

The target of one assay is T1, recombinant human IL4 (human, UniProt P05112 25-153).
T1 construct: also called Antigen1
T1 sequence (looked up): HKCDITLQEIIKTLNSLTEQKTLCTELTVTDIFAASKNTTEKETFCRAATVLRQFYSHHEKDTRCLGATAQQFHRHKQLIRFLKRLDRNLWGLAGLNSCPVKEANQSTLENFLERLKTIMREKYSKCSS
Briefly: SPR, Biacore 3000; CODV-Ig captured by anti-human Fc, antigen as analyte. A general note: SPR reads the build-up and loss of mass on a sensor chip optically.

The target in the next assay is T2, recombinant human IL13 (human, UniProt P35225 in part, limits assumed).
T2 construct: also called Antigen2
Described as above.

recombinant human IL13, sequence (P35225 35-146 limits assumed): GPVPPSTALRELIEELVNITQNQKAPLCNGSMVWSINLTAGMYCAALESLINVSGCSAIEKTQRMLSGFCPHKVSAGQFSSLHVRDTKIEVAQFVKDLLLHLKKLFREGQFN

B1: CODV-Ig Batch ID 113 (IL4 × IL13 on LC; L1=1, L2=2, L3=0, L4=0) (bispecific antibody)
heavy: EVQLKESGPGLVAPGGSLSITCTVSGFSLTDSSINWVRQPPGKGLEWLGMIWGDGRIDYADALKSRLSISKDSSKSQVFLEMTSLRTDDTATYYCARDGYFPYAMDFWGQGTSVTVSSQVQLQQSGPELVKPGASVKISCKASGYSFTSYWIHWIKQRPGQGLEWIGMIDPSDGETRLNQRFQGRATLTVDESTSTAYMQLRSPTSEDSAVYYCTRLKEYGNYDSFYFDVWGAGTLVTVSS[letters of human IgG1 constant region not shown]
light: DIQMTQSPASLSVSVGDTITLTCHASQNIDVWLSWFQQKPGNIPKLLIYKASNLHTGVPSRFSGSGSGTGFTLTISSLQPEDIATYYCQQAHSYPFTFGGGTKLEIKGDIVLTQSPASLAVSLGQRATISCRASESVDSYGQSYMHWYQQKAGQPPKLLIYLASNLESGVPARFSGSGSRTDFTLTIDPVQAEDAATYYCQQNAEDSRTFGGGTKLEIKGGRTVAAPSVFIFPPSDEQLKSGTASVVCLLNNFYPREAKVQWKVDNALQSGNSQESVTEQDSKDSTYSLSSTLTLSKADYEKHKVYACEVTHQGLSSPVTKSFNRGEC
As for B1, the Kd (commonly the concentration at which binding is half-saturated) in the assay with recombinant human IL4 came out at 6 pM.

B2: CODV-Ig Batch ID 122 (IL4 × IL13 on LC; L1=1, L2=2, L3=2, L4=7) (bispecific antibody, human IgG1, kappa)
heavy: EVQLKESGPGLVAPGGSLSITCTVSGFSLTDSSINWVRQPPGKGLEWLGMIWGDGRIDYADALKSRLSISKDSSKSQVFLEMTSLRTDDTATYYCARDGYFPYAMDFWGQGTSVTVSSGGQVQLQQSGPELVKPGASVKISCKASGYSFTSYWIHWIKQRPGQGLEWIGMIDPSDGETRLNQRFQGRATLTVDESTSTAYMQLRSPTSEDSAVYYCTRLKEYGNYDSFYFDVWGAGTLVTVSSGGGGGGG[letters of human IgG1 constant region not shown]
light: DIQMTQSPASLSVSVGDTITLTCHASQNIDVWLSWFQQKPGNIPKLLIYKASNLHTGVPSRFSGSGSGTGFTLTISSLQPEDIATYYCQQAHSYPFTFGGGTKLEIKGDIVLTQSPASLAVSLGQRATISCRASESVDSYGQSYMHWYQQKAGQPPKLLIYLASNLESGVPARFSGSGSRTDFTLTIDPVQAEDAATYYCQQNAEDSRTFGGGTKLEIKGGRTVAAPSVFIFPPSDEQLKSGTASVVCLLNNFYPREAKVQWKVDNALQSGNSQESVTEQDSKDSTYSLSSTLTLSKADYEKHKVYACEVTHQGLSSPVTKSFNRGEC
notes: also called LC4:HC3
With B2, in the assay with recombinant human IL4, the Kd turned out to be 1 pM.

B3: CODV-Ig Batch ID 126 (IL4 × IL13 on LC; L1=1, L2=2, L3=6, L4=7) (bispecific antibody, human IgG1, kappa)
heavy: EVQLKESGPGLVAPGGSLSITCTVSGFSLTDSSINWVRQPPGKGLEWLGMIWGDGRIDYADALKSRLSISKDSSKSQVFLEMTSLRTDDTATYYCARDGYFPYAMDFWGQGTSVTVSSGGGGGGQVQLQQSGPELVKPGASVKISCKASGYSFTSYWIHWIKQRPGQGLEWIGMIDPSDGETRLNQRFQGRATLTVDESTSTAYMQLRSPTSEDSAVYYCTRLKEYGNYDSFYFDVWGAGTLVTVSSGGGGGGG[letters of human IgG1 constant region not shown]
light: DIQMTQSPASLSVSVGDTITLTCHASQNIDVWLSWFQQKPGNIPKLLIYKASNLHTGVPSRFSGSGSGTGFTLTISSLQPEDIATYYCQQAHSYPFTFGGGTKLEIKGDIVLTQSPASLAVSLGQRATISCRASESVDSYGQSYMHWYQQKAGQPPKLLIYLASNLESGVPARFSGSGSRTDFTLTIDPVQAEDAATYYCQQNAEDSRTFGGGTKLEIKGGRTVAAPSVFIFPPSDEQLKSGTASVVCLLNNFYPREAKVQWKVDNALQSGNSQESVTEQDSKDSTYSLSSTLTLSKADYEKHKVYACEVTHQGLSSPVTKSFNRGEC
notes: also called LC4:HC1
With B3, the Kd with recombinant human IL4 is 9 pM.

B4: CODV-Ig Batch ID 124 (IL4 × IL13 on LC; L1=1, L2=2, L3=4, L4=7) (bispecific antibody, human IgG1, kappa)
heavy: EVQLKESGPGLVAPGGSLSITCTVSGFSLTDSSINWVRQPPGKGLEWLGMIWGDGRIDYADALKSRLSISKDSSKSQVFLEMTSLRTDDTATYYCARDGYFPYAMDFWGQGTSVTVSSGGGGQVQLQQSGPELVKPGASVKISCKASGYSFTSYWIHWIKQRPGQGLEWIGMIDPSDGETRLNQRFQGRATLTVDESTSTAYMQLRSPTSEDSAVYYCTRLKEYGNYDSFYFDVWGAGTLVTVSSGGGGGGG[letters of human IgG1 constant region not shown]
light: DIQMTQSPASLSVSVGDTITLTCHASQNIDVWLSWFQQKPGNIPKLLIYKASNLHTGVPSRFSGSGSGTGFTLTISSLQPEDIATYYCQQAHSYPFTFGGGTKLEIKGDIVLTQSPASLAVSLGQRATISCRASESVDSYGQSYMHWYQQKAGQPPKLLIYLASNLESGVPARFSGSGSRTDFTLTIDPVQAEDAATYYCQQNAEDSRTFGGGTKLEIKGGRTVAAPSVFIFPPSDEQLKSGTASVVCLLNNFYPREAKVQWKVDNALQSGNSQESVTEQDSKDSTYSLSSTLTLSKADYEKHKVYACEVTHQGLSSPVTKSFNRGEC
notes: also called LC4:HC5
In the case of B4, in the assay with recombinant human IL4, the Kd was determined as 6 pM.

B5: CODV-Ig Batch ID 125 (IL4 × IL13 on LC; L1=1, L2=2, L3=6, L4=4) (bispecific antibody, human IgG1, kappa)
heavy: EVQLKESGPGLVAPGGSLSITCTVSGFSLTDSSINWVRQPPGKGLEWLGMIWGDGRIDYADALKSRLSISKDSSKSQVFLEMTSLRTDDTATYYCARDGYFPYAMDFWGQGTSVTVSSGGGGGGQVQLQQSGPELVKPGASVKISCKASGYSFTSYWIHWIKQRPGQGLEWIGMIDPSDGETRLNQRFQGRATLTVDESTSTAYMQLRSPTSEDSAVYYCTRLKEYGNYDSFYFDVWGAGTLVTVSSGGGG[letters of human IgG1 constant region not shown]
light: DIQMTQSPASLSVSVGDTITLTCHASQNIDVWLSWFQQKPGNIPKLLIYKASNLHTGVPSRFSGSGSGTGFTLTISSLQPEDIATYYCQQAHSYPFTFGGGTKLEIKGDIVLTQSPASLAVSLGQRATISCRASESVDSYGQSYMHWYQQKAGQPPKLLIYLASNLESGVPARFSGSGSRTDFTLTIDPVQAEDAATYYCQQNAEDSRTFGGGTKLEIKGGRTVAAPSVFIFPPSDEQLKSGTASVVCLLNNFYPREAKVQWKVDNALQSGNSQESVTEQDSKDSTYSLSSTLTLSKADYEKHKVYACEVTHQGLSSPVTKSFNRGEC
notes: also called LC4:HC2
On to B5, for which the Kd with recombinant human IL4 came out at 8 pM.

B6: CODV-Ig Batch ID 102 (IL4 × IL13 on LC; L1=0, L2=0, L3=2, L4=4) (bispecific antibody)
heavy: EVQLKESGPGLVAPGGSLSITCTVSGFSLTDSSINWVRQPPGKGLEWLGMIWGDGRIDYADALKSRLSISKDSSKSQVFLEMTSLRTDDTATYYCARDGYFPYAMDFWGQGTSVTVSSGGQVQLQQSGPELVKPGASVKISCKASGYSFTSYWIHWIKQRPGQGLEWIGMIDPSDGETRLNQRFQGRATLTVDESTSTAYMQLRSPTSEDSAVYYCTRLKEYGNYDSFYFDVWGAGTLVTVSSGGGG[letters of human IgG1 constant region not shown]
light: DIQMTQSPASLSVSVGDTITLTCHASQNIDVWLSWFQQKPGNIPKLLIYKASNLHTGVPSRFSGSGSGTGFTLTISSLQPEDIATYYCQQAHSYPFTFGGGTKLEIKDIVLTQSPASLAVSLGQRATISCRASESVDSYGQSYMHWYQQKAGQPPKLLIYLASNLESGVPARFSGSGSRTDFTLTIDPVQAEDAATYYCQQNAEDSRTFGGGTKLEIKRTVAAPSVFIFPPSDEQLKSGTASVVCLLNNFYPREAKVQWKVDNALQSGNSQESVTEQDSKDSTYSLSSTLTLSKADYEKHKVYACEVTHQGLSSPVTKSFNRGEC
For the molecule B6, the Kd with recombinant human IL4 is 35 pM.

B7: CODV-Ig Batch ID 104 (IL4 × IL13 on LC; L1=0, L2=2, L3=2, L4=4) (bispecific antibody)
chain 1: EVQLKESGPGLVAPGGSLSITCTVSGFSLTDSSINWVRQPPGKGLEWLGMIWGDGRIDYADALKSRLSISKDSSKSQVFLEMTSLRTDDTATYYCARDGYFPYAMDFWGQGTSVTVSSGGQVQLQQSGPELVKPGASVKISCKASGYSFTSYWIHWIKQRPGQGLEWIGMIDPSDGETRLNQRFQGRATLTVDESTSTAYMQLRSPTSEDSAVYYCTRLKEYGNYDSFYFDVWGAGTLVTVSSGGGG[letters of human IgG1 constant region not shown]
chain 2: DIQMTQSPASLSVSVGDTITLTCHASQNIDVWLSWFQQKPGNIPKLLIYKASNLHTGVPSRFSGSGSGTGFTLTISSLQPEDIATYYCQQAHSYPFTFGGGTKLEIKDIVLTQSPASLAVSLGQRATISCRASESVDSYGQSYMHWYQQKAGQPPKLLIYLASNLESGVPARFSGSGSRTDFTLTIDPVQAEDAATYYCQQNAEDSRTFGGGTKLEIKGGRTVAAPSVFIFPPSDEQLKSGTASVVCLLNNFYPREAKVQWKVDNALQSGNSQESVTEQDSKDSTYSLSSTLTLSKADYEKHKVYACEVTHQGLSSPVTKSFNRGEC
With B7, the Kd stood at 137 pM with recombinant human IL13 and 3 pM in the assay with recombinant human IL4.

B8: CODV-Ig Batch ID 103 (IL4 × IL13 on LC; L1=0, L2=1, L3=2, L4=4) (bispecific antibody)
chain 1: EVQLKESGPGLVAPGGSLSITCTVSGFSLTDSSINWVRQPPGKGLEWLGMIWGDGRIDYADALKSRLSISKDSSKSQVFLEMTSLRTDDTATYYCARDGYFPYAMDFWGQGTSVTVSSGGQVQLQQSGPELVKPGASVKISCKASGYSFTSYWIHWIKQRPGQGLEWIGMIDPSDGETRLNQRFQGRATLTVDESTSTAYMQLRSPTSEDSAVYYCTRLKEYGNYDSFYFDVWGAGTLVTVSSGGGG[letters of human IgG1 constant region not shown]
chain 2: DIQMTQSPASLSVSVGDTITLTCHASQNIDVWLSWFQQKPGNIPKLLIYKASNLHTGVPSRFSGSGSGTGFTLTISSLQPEDIATYYCQQAHSYPFTFGGGTKLEIKDIVLTQSPASLAVSLGQRATISCRASESVDSYGQSYMHWYQQKAGQPPKLLIYLASNLESGVPARFSGSGSRTDFTLTIDPVQAEDAATYYCQQNAEDSRTFGGGTKLEIKGRTVAAPSVFIFPPSDEQLKSGTASVVCLLNNFYPREAKVQWKVDNALQSGNSQESVTEQDSKDSTYSLSSTLTLSKADYEKHKVYACEVTHQGLSSPVTKSFNRGEC
For B8, the Kd with recombinant human IL13 came out at 124 pM; with recombinant human IL4 it was 4 pM.

B9: CODV-Ig Batch ID 105 (IL4 × IL13 on LC; L1=0, L2=2, L3=4, L4=4) (bispecific antibody)
chain 1: EVQLKESGPGLVAPGGSLSITCTVSGFSLTDSSINWVRQPPGKGLEWLGMIWGDGRIDYADALKSRLSISKDSSKSQVFLEMTSLRTDDTATYYCARDGYFPYAMDFWGQGTSVTVSSGGGGQVQLQQSGPELVKPGASVKISCKASGYSFTSYWIHWIKQRPGQGLEWIGMIDPSDGETRLNQRFQGRATLTVDESTSTAYMQLRSPTSEDSAVYYCTRLKEYGNYDSFYFDVWGAGTLVTVSSGGGG[letters of human IgG1 constant region not shown]
chain 2: DIQMTQSPASLSVSVGDTITLTCHASQNIDVWLSWFQQKPGNIPKLLIYKASNLHTGVPSRFSGSGSGTGFTLTISSLQPEDIATYYCQQAHSYPFTFGGGTKLEIKDIVLTQSPASLAVSLGQRATISCRASESVDSYGQSYMHWYQQKAGQPPKLLIYLASNLESGVPARFSGSGSRTDFTLTIDPVQAEDAATYYCQQNAEDSRTFGGGTKLEIKGGRTVAAPSVFIFPPSDEQLKSGTASVVCLLNNFYPREAKVQWKVDNALQSGNSQESVTEQDSKDSTYSLSSTLTLSKADYEKHKVYACEVTHQGLSSPVTKSFNRGEC
As to B9, the values for the Kd with recombinant human IL13 and in the assay with recombinant human IL4 were 94 pM and 6 pM, respectively.
